# From PubChem BioAssay AID360 (National Center for Advancing Translational Sciences (NCATS), 2006)
# The whole screen tested about 48,000 compounds, of which about 550 (1.1%) were called active. Inconclusive results (about 4%) are left out. Cut-off read from the data, not from the text of the source: active = potency below about 15 µM; inconclusive = mostly about 16 µM to 33 µM; inactive = weaker than that. Some of the results follow.
# Molecular target: Lysosomal acid glucosylceramidase (Homo sapiens) (UniProt P04062)
# UniProt P04062, sequence (P04062 whole entry, looked up): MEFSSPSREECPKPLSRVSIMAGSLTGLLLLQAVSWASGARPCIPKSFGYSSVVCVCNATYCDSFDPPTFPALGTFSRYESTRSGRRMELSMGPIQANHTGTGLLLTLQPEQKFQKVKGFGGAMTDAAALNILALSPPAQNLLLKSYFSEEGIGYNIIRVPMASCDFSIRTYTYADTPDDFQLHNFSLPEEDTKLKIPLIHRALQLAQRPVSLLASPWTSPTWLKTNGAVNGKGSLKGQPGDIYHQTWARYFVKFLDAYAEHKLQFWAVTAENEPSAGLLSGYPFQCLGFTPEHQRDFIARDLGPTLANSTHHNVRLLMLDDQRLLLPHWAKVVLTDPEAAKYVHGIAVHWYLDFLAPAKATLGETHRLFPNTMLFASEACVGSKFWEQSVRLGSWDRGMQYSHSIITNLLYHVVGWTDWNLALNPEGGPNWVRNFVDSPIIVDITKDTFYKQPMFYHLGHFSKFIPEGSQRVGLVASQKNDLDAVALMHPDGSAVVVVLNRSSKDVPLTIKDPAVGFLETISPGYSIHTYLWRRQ
# Test: Glucocerebrosidase;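 note: the screen sought inhibitors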
# Details: purified enzyme, resorufin glucoside fluorescence (screen aimed at inhibitors), 20 min
# In short: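 Normal human glucocerebrosidase (0.2 nM final) was assayed with resorufin β-D-glucopyranoside (30 uM final) in 50mM citric acid/KH2PO4, 10mM sodium taurocholate, 0.01% tween-20, pH 5.9. Compounds were titrated; fluorescence (Ex 548, Em 600) read after 20 min at RT.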
# Potency is the fitted concentration of half-maximal effect.
row,SMILES,Potency
1,O=C(CN1C(=O)NC2(CCCC2)C1=O)Nc1nc(-c2ccc(F)cc2)cs1,inactive: > 76.9 µM
2,OC1(c2cccc(C(F)(F)F)c2)CCNCC1,inactive: > 76.9 µM
3,COc1cccc(-n2c(C)nc3c(cnn3-c3ccc(Cl)cc3)c2=O)c1,inactive: > 76.9 µM
4,Cc1ccc(N=C2SCCCN2C(=O)c2ccco2)cc1Cl,inactive: > 76.9 µM
5,Cc1nc2cc(C(=O)O)ccc2n1-c1ccc(F)cc1F,inactive: > 76.9 µM
6,COc1cccc(-c2nnc(NC(=O)c3ccc(S(=O)(=O)N4CCOCC4)cc3)o2)c1,inactive: > 76.9 µM
7,COc1cc(C2/C(=C(/O)c3ccc(F)cc3)C(=O)C(=O)N2CCCC(=O)O)ccc1O (stereo not drawn),inactive: > 76.9 µM
8,NC1=NC2(CCN(Cc3ccccc3)CC2)n2c(nc3ccccc32)N1,active: 3.69 µM
9,CN(C)c1ccc(CN(C(=O)COc2ccc(F)cc2)C2CCS(=O)(=O)C2)cc1 (stereo not drawn),inactive: > 76.9 µM
10,CCCC(=O)Nc1ccc(NC(=O)Cc2ccccc2)cn1,inactive: > 76.9 µM
11,CCOc1c(CNCCNC(=O)c2nonc2N)cccc1OC,inactive: > 76.9 µM
12,Cc1nn(-c2ccccc2)c2sc(C(=O)NC3CCCCC3)cc12,inactive: > 76.9 µM
13,Cc1nc(N2C(=O)C(=O)/C(=C(/O)c3ccccc3)C2c2ccco2)sc1C (stereo not drawn),inactive: > 76.9 µM
14,Nc1nnc(SCC(=O)NCc2ccc3c(c2)OCO3)s1,inactive: > 76.9 µM
15,Cc1ccc(N2C(=O)c3ccc(N)cc3C2=O)cc1C,inactive: > 76.9 µM
16,COc1cc2cc(CN(CCCO)S(=O)(=O)c3ccccc3Cl)c(=O)[nH]c2cc1OC,inactive: > 76.9 µM
17,CCCCn1c(N)c(N(CCC(C)C)C(=O)CSc2nnc(C)s2)c(=O)[nH]c1=O,inactive: > 76.9 µM
18,O=C(CSc1nnc(-c2ccccc2F)n1C1CCCCC1)N1CCCC1,inactive: > 76.9 µM
19,Cc1ccc(-c2[nH]nc3c2C(c2ccoc2)C(C#N)=C(N)O3)cc1C (stereo not drawn),inactive: > 76.9 µM
20,O=C(O)CSc1nnc(-c2cccs2)n1-c1ccc(Cl)cc1,inactive: > 76.9 µM
21,Cc1cc(C)c2cc(CN(Cc3ccco3)C(=O)NCc3ccccc3)c(=O)[nH]c2c1,inactive: > 76.9 µM
22,CC1(C(=O)O)CCC(C(=O)Nc2ccccc2)C1(C)C (stereo not drawn),inactive: > 76.9 µM
23,COC(=O)c1nc(NC(C)=O)n[nH]1,inactive: > 76.9 µM
24,CCOC(=O)C1=C(C)NC(=O)NC1c1ccc(OC(C)C(=O)O)c(OC)c1 (stereo not drawn),inactive: > 76.9 µM

row,SMILES,Potency
1,O=C(Nc1cc(Cl)ccc1O)c1cc2n(n1)C(C(F)(F)F)CC(c1ccc3c(c1)OCO3)N2 (stereo not drawn),inactive: > 76.9 µM
2,O=c1cc(-c2ccccc2)nc2nc(SCc3ccccc3)[nH]n12,inactive: > 76.9 µM
3,COc1ccc(OCCSc2nnc(-c3ccoc3C)n2C)cc1,inactive: > 76.9 µM
4,CNC(=O)Nc1ccccc1NC(=O)NC,inactive: > 76.9 µM
5,Cc1ccc(-c2nc3s/c(=C\c4ccco4)c(=O)n3n2)cc1,inactive: > 76.9 µM
6,Cc1nnc(SCc2nnc(-c3ccccc3Br)o2)n1-c1ccccc1,inactive: > 76.9 µM
7,Cn1ccnc1-c1nc2ccccc2[nH]c1=O,inactive: > 76.9 µM
8,c1ccc(-c2nn3nnnc3c3ccccc23)cc1,inactive: > 76.9 µM
9,CN1CCN(c2ccccc2NS(=O)(=O)c2ccc3c(c2)CCN3C(=O)C2CCC2)CC1,inactive
10,CCc1ccc(C(=O)N2CCN(c3ccc(F)cc3)CC2)s1,inactive: > 76.9 µM
11,Cc1nc(C)c(C(=O)Nc2cccc(Cl)c2)o1,inactive: > 76.9 µM
12,COc1ccc(C(=O)Nc2ccccc2)cc1S(=O)(=O)Nc1cc(C)on1,inactive: > 76.9 µM
13,CCC1Oc2ccccc2N(CC(=O)NCCN2C(C)CCCC2C)C1=O (stereo not drawn),inactive: > 76.9 µM
14,CN(CC(=O)NC1CCCCC1)S(=O)(=O)c1ccc(Br)s1,inactive: > 76.9 µM
15,CC(OC(=O)C(NC(=O)c1ccco1)C(C)C)C(=O)Nc1ncc(Cl)cc1Cl (stereo not drawn),inactive: > 76.9 µM
16,Cc1cc(NC(=O)c2cc(Cl)ccc2Cl)no1,inactive: > 76.9 µM
17,CCOC(=O)c1sc(=NC(=O)c2ccc(S(=O)(=O)N3CC(C)OC(C)C3)cc2)n(C)c1C (stereo not drawn),inactive: > 76.9 µM
18,CCOC(=O)N1CCN(C(=O)C2CCN(S(=O)(=O)N3CCCC3)CC2)CC1,inactive: > 76.9 µM
19,O=C(c1cc(=O)c2ccccc2o1)N1CCCc2ccccc21,inactive: > 76.9 µM
20,COc1ccc(C)cc1NCc1cccc(OC)c1OC,inactive: > 76.9 µM
21,Cc1oc(-c2nc3ccccc3n2C)cc1C(=O)c1ccccc1,inactive: > 76.9 µM
22,O=C(O)c1sccc1S(=O)(=O)c1ccccc1,inactive: > 76.9 µM
23,COc1ccc(NC(=O)CSc2nccn2-c2cccc(OC)c2)cc1,inactive: > 76.9 µM
24,O=C(NCc1ccco1)Nc1ccccc1Cl,inactive: > 76.9 µM

row,SMILES,Potency
1,Oc1ccccc1Nc1ncnc2c1oc1ccccc12,inactive: > 76.9 µM
2,O=C1[C@@H]2[C@H](Cc3ccc(O)cc3)N[C@]3(C(=O)Nc4ccccc43)[C@@H]2C(=O)N1c1ccc(F)cc1,inactive: > 76.9 µM
3,CCOC(=O)C1CCN(C(=O)COC(=O)COc2ccccc2OC)CC1,inactive: > 76.9 µM
4,CSc1ccc(C2Nc3ccccc3-c3cc(C)nn32)cc1 (stereo not drawn),inactive: > 76.9 µM
5,Cc1onc(-c2ccccc2Cl)c1C(=O)NCc1cccs1,inactive: > 76.9 µM
6,COc1ccccc1CNC(=O)COC(=O)c1cnccn1,inactive: > 76.9 µM
7,Cc1cc(C(=O)COc2nncc3ccccc23)c(C)n1C,inactive: > 76.9 µM
8,Cc1cc(C)c(NC(=O)C2CCCN2CCO)c(C)c1 (stereo not drawn),inactive: > 76.9 µM
9,O=C(NCc1ccc(F)cc1)C1CCC(=O)N1C1CCCCC1 (stereo not drawn),inactive: > 76.9 µM
10,C=CCc1c(C)nc2c(C(=O)O)cnn2c1C,inactive: > 76.9 µM
11,CC(C)OCCCNC(=O)CNC(=O)c1cccs1,inactive: > 76.9 µM
12,CN(C)CCNc1nc2c(c(=O)[nH]c(=O)n2C)n1CC(O)COc1ccc(Cl)cc1Cl (stereo not drawn),inactive: > 76.9 µM
13,CC(NS(C)(=O)=O)C(c1cccs1)N1CCN(C)CC1 (stereo not drawn),inactive: > 76.9 µM
14,CC(C)Oc1ccc(N2CC(C(=O)Nc3ccccc3F)CC2=O)cc1 (stereo not drawn),inactive: > 76.9 µM
15,Cc1nc(N2CCN(C)CC2)[nH]c(=O)c1Cc1cccc2ccccc12,inactive
16,COc1c(C)cc(Br)cc1C(=O)O,inactive: > 76.9 µM
17,CCn1c2ccccc2c2nnc(SCc3cc(=O)n4ccsc4n3)nc21,inactive: > 76.9 µM
18,COc1ccc(CCNC(=O)CSc2nc3c(c(=O)n(C)c(=O)n3C)n2C(C)C)cc1OC,inactive: > 76.9 µM
19,Cc1ccc2c(c1)N(CCCC(=O)NCCC1=CCCCC1)C(=O)CO2,inactive: > 76.9 µM
20,CS(=O)(=O)NC1CCN(Cc2ccccc2)CC1,inactive: > 76.9 µM
21,CC1=C(Sc2ccccn2)C(=O)NC(C)(C)C1,inactive: > 76.9 µM
22,CC(C)NC(=O)CN(C)S(=O)(=O)c1ccc(F)cc1,inactive: > 76.9 µM
23,COC(=O)c1ccccc1OCC(=O)NC1CCCCC1,inactive: > 76.9 µM
24,O=S(=O)(c1cccc2nsnc12)N1CCc2ccccc2C1,inactive: > 76.9 µM

row,SMILES,Potency
1,Cc1ccc(NC(=O)CN(C)S(=O)(=O)c2cccc3nsnc23)cc1C,inactive: > 76.9 µM
2,COc1ccc(-c2nnc(SCCc3ccccc3)n2N)cc1,inactive: > 76.9 µM
3,Cc1cc(Nc2ncc(Cl)cc2Cl)n[nH]1,inactive: > 76.9 µM
4,COCCCNC(=O)Cn1cc(C(=O)C2CC2)c2ccccc21,inactive: > 76.9 µM
5,O=C(Nc1cccc2c1CCCC2)C1CCCN(S(=O)(=O)c2cccc3nonc23)C1 (stereo not drawn),inactive: > 76.9 µM
6,O=C(CN1CCN(c2ccccn2)CC1)N1c2ccccc2CCc2ccccc21,inactive: > 76.9 µM
7,Cc1ccc(-c2noc(C3CCN(S(C)(=O)=O)CC3)n2)o1,inactive: > 76.9 µM
8,Nc1nc(-c2ccco2)c(-c2ccco2)s1,inactive: > 76.9 µM
9,COc1ccc(-c2cc(C(=O)Nc3cccc(C(C)=O)c3)no2)cc1,inactive: > 76.9 µM
10,Cc1cc(C)n(CCc2nc(-c3cc4ccccc4o3)cs2)n1,inactive: > 76.9 µM
11,O=C1c2ccccc2-c2ncnc3cccc1c23,inactive: > 76.9 µM
12,CCOc1ccccc1OCCCC(=O)N1CCN(S(=O)(=O)c2ccc(C)cc2)CC1,inactive: > 76.9 µM
13,Cc1cc(NC(=O)Cn2cnc3c2c(=O)n(C)c(=O)n3C)n(-c2ccccc2)n1,inactive: > 76.9 µM
14,Cc1cc(NC(=O)Cn2nc(C(F)(F)F)c3c2CCCC3)no1,inactive: > 76.9 µM
15,O=S(=O)(NC1=NCCC1)c1cccs1,inactive: > 76.9 µM
16,CCOC(=O)C(C)n1cnc2c(nnn2Cc2ccc(C)cc2)c1=O (stereo not drawn),inactive: > 76.9 µM
17,N#C/C(=C(/O)COC(=O)CCC1CCCCC1)c1nc2ccccc2[nH]1,inactive: > 76.9 µM
18,Cc1cc(=O)[nH]c(SCC(=O)NCc2ccco2)n1,inactive: > 76.9 µM
19,Cc1nn(-c2ccccc2)c2c1C(c1ccco1)C(C#N)=C(N)O2 (stereo not drawn),inactive: > 76.9 µM
20,CCOC(=O)N1CCN(C(=O)CN2C(=O)COc3ccc(C(C)(C)C)cc32)CC1,inactive: > 76.9 µM
21,CCOC(=O)Cn1c2c(c(=N)c3c1CCC3)CCC2,inactive: > 76.9 µM
